Test results taken from the RNAGym collection of RNA variant scans (doi:10.7554/elife.90254).
Read counts are not given, so values of variants with three or more changes are uncertain.

B1: OR4K15 (parent)
chain: GUUAACGGUCAUAGGCCAUGGAAACUAGGAGCACCAUUUCGCUGCCAGUGAAGAAAUGAACAAAGAAAAUCUGGGCCAGGCAGGCAUCAAAAGAAAUAGUCUUGCGCUCAACCAGAAAGUCUGUAAUCAUUUUAAGGGUA

Variants of: B1
Assay: self-cleavage, relative activity (ratio to wild type); higher = more cleavage; in vitro, sequencing; the parent is a self-cleaving ribozyme

Variant	self-cleavage
U87A U102A A117G A126G U133C	0.96
A89U A96G U124C	1.18
A89G A114G A125G	0.14
A89G U103C A134G	0.43
A92G A96G U131C U132C	1.37
A92G A95G A134G	2.77
A89G A116G A118U	0.32
A86G A91U U120A	1.57
U87C U102C U124C	0.71
A91U A95G A111U	0.38
A92U U102C C105U	0.55
U87C A96G A129G	1.29
A86G A96G C105U	0.28
A94G A117G U132C	2.18
A90C U127A A134G	1.79
U87C A91U G106A	0.08
A94G A126G A129C	0.19
A86G A92G A96G C107U	0
A90G U97C C109U A135U	0.21
A95C G119U U130G	0.55
U87C A117G U127C	0.68
A90G A98G A117G	0.29
A94G C113U U122C U124C A134G	0.01
A89G U102A A110G U127C	0.02

Variant	self-cleavage
A91G A110U U127C	0.39
A89U C107U A111U	0.01
U87A A94G U122C	1.85
A86G A92G A118U	0.62
U87C C109G A110G	0
A90G U103C U124C	0.62
A90G A116G U131C G136A G137A	0.13
A92G U120A U131C	0.83
A94G A114U A118G	0.02
U87A A96G A129U	0.99
A91G U102C A111G U122A	0
A94G A96G A126U	1.1
U87C A90G U103C U124C U127C	0.04
A90G U131A U132C	1.38
A86U A116G A117C	0.32
A94G A117G U130C	1.46
U87C A95G U120C U122C	0.13
U87A U103A A116G A117G A118U	0.13
A86G A114G U120C	0.12
A86G U120C U133C	1.23
A94U U120C A125U	1.41
A92C U108C U130C	0
A86G A98G C113U	0.01
A92G A94U U108C	0.05

Variant	self-cleavage
A94G U100C C101U A114U U132C	0.02
A86G A91G A92G	0.44
A86G A91G A94G U102G	0.25
A89G A110C U131C	0.13
A86G A116G U132C	0.72
A90G U100A A117G	0.5
A91G U103C G123A	0.66
A92G U97C U103C	0.68
A86G U102A U130C	0.93
A94G C105A A126G	0.01
A89G A114G A134U	0.44
A91U A95G U108C A116G A118G	0
A91G U103C A116G U122C U124A	0.06
A90G A91G U120A	1.81
A90G A91G U97C U133A	0.87
A91G A111G U130C	0.01
A90G A95G U103C G106A	0.01
U87A A114U A140G	0.07
A92G C107U U120C	0
A86U A110G U122G	0.06
A86G A110G C112U	0.01
A89U U127C A134G	0.83
A94G C105U U120C	0.03
A89G A118G U120C	0.41

Variant	self-cleavage
U87C A98G U100C A111U U130C	0.03
A94G C112G U139G	0.04
A94G U103C A110G	0.15
A89G A114G U122C	0.12
A86G A91G U97C U130C	0.07
A86U A90G A116G A125G U132C	0.02
A94G U120G A126G	1.04
U87C U102A U122C	0.08
A90G U122C A135G	0.85
A94U U100C U122C	1.91
U87C U97A U108C	0
A92G A110G A118G U120C A129U	0.02
A94G C113U U122C	0.03
U87C U124C U127C	0.3
A86U A96G G115A U120C	0.02
A89U C105U A118G	0.07
A86U U108A U120C	0
A90G A114G A134G	0.07
A86U U100C U130C	1.81
A90C U100C A114G A117G	0.99
A89G A126C U127C	0.25
A89U A118G U120A	2.62
A90U U108A A110G	0.01
A86G U103C U127C U131C	0.33

Variant	self-cleavage
U87C A95G G123A	1.59
A90C A96G G115U A118G U131C	0.01
A90G U103C A125G	0.06
A91G A110G C128U A129U U131C	0.05
U87A U127A U131A A134G	2.15
A90G A98G A126G	0.3
U87C C107A A125G	0
A91G A117U U122A U139C	0.34
A90G A111G C128U	0.04
U87C A95G A129U U132C	0.86
U87C A89G A96G	1.32
A90G A94G A117G	2.01
A94U A95G A135G	1.26
A92G A117G A125U	0.67
A89U A96U U132C	2.15
A92G A98G C113U	0
A86G A94G U130C	0.86
A90G U103C U108C	0
A86G A94G U108C	0.01
U87C A90G A96G	0.47
A86G A116G U122C	0.44
A86G A118G G119U U130C	1.07
A91U U102C U122C	1.88
A91U U124A A126G	0.79

Variant	self-cleavage
A92G A117G U127C	1.08
U87C A90G U103A	0.1
A90G U100C A129U	1.21
A86G A111G U139C	0.01
U87C A91G A96C	0.36
A86G A92G A116G	0.6
A86G U108C A125U	0.01
U87A A91G A95G	1.32
A89U A116U U131C	0.23
U87C A110G A135U	0.03
U87A U102G U103A	0.11
A92G A114G A134U	0.2
A90G A96U C113U A129G	0.01
A90G A95G U127A	1.18
A86G C109G U133C	0.02
U87A A96U U122A	1.74
U87C A126G U131C	0.9
A89C A92C A116G A135G	0.09
G93A A95G U122C A134G	2.55
A90G U127C A135C	1.01
A89U A92G A129U	1.57
A86U A89C A90G U103A A111G U127C	0
U87C U100A A111C A117G	0.01
U87C U103C U131C	0.19

Variant	self-cleavage
A89C A95G A111U A134G	0.29
A94G U130C U139G	0.85
A86U A94G A117G U131C	2.84
A91G A94G U124C	0.51
A89U A111G U132C A135G	0.01
A92G A118G U120A	1.7
U87A U131C G137A	0.7
A86G A110G U120C	0.09
A89U A126G U127A	0.59
A89G U103C A111G A126G	0.01
A91G A92G U108C	0.01
A91G U103C A110G U132A	0.06
A86G U120A U127A A134G A135U	2.29
A94G A110C U122C U130C	0.11
A90G A92G A111G	0.03
U87A G104U U127C	0.01
A86U A94G U122A U131C	1.22
A89U A111G A125C	0.02
U87C U108A A111U	0.01
A94G U100C A118G	2.34
A92U U100C U103C C105U	0.14
A90G U122A U132C	0.75
U87C A96G U103A	0.83
